Assay results: the supplement of paper PMC11417369
± gives the standard deviation of the averaged measurements. The list shows a part of the results.

The sequences below were run on PfAP2-EXP AP2 domain (GST-tagged) (assay: gcPBM binding intensity (ln(normalized median fluorescence intensity)); higher = stronger DNA binding).
Summary of the method: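 An Agilent 4 × 180k array carrying primer-extended double-stranded 36-bp intergenic genomic probes and negative controls received GST-tagged P. falciparum DNA-binding domains expressed in E. coli, about 25 μg on average, for 1 h. The binding buffer contained 1× PBS, 1% milk, 0.2 mg/ml BSA, 0.5% salmon testes DNA and 0.03% Triton X-100. Binding intensity is the top Masliner-normalised natural-log median intensity across replicate spots of either probe orientation, read after Alexa488 anti-GST antibody staining and a 488 nm scan.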

Row | Sequence | gcPBM binding intensity (ln)
1 | TAATAGAATATGATGGTGCAGCAGTCTTATTTTTCA | 8.66 ± 0.41
2 | TACATATAATATATTGCACACGTCAGAATAATATAG [CACACA_site1744] | 8.57 ± 0.13
3 | CCCCCCCACGGACACACACACATACATACCACATAT [CACACA_site5303] | 10.3 ± 0.19
4 | TTAGCCATTAATTCTCTACACACCTTTATGTTATTT [CACACA_site9212] | 8.74 ± 0.35
5 | TTTTATAATATTTAAAGTACATTCTAAAAATATAAT [XGTACX_site8033] | 8.05 ± 0.23
6 | TATAATTATTTTTTTCTAAATATTATAAGGTATTCA [GTGCAC_negctrl_site205] | 7.87 ± 0.4
7 | AAATAAAATAAAATAAAATAAAATTCTTTGATACCT [TGCATGCA_negctrl_site604] | 8.33 ± 0.42
8 | ATTTTTTTTTTTTTTTTTTTTTTTTAGATTAAGAAA [CACACA_negctrl_site1272] | 7.96 ± 0.57
9 | CTATTTATTATATATACATGCATATATATATTAATA [TGCATGCA_site527] | 8.46 ± 0.26
10 | TATTCTAATTTTTAAACACACAAATATAAATAAGTA [CACACA_site3149] | 8.29 ± 0.42
11 | TATTCATATTTAAAGGTGCAATATTTATTTTGTACA | 8.23 ± 0.16
12 | TAAAAATGTGTATGTACACACTTTATTTTTAATACA [CACACA_site7235] | 8.41 ± 0.15
13 | GATAATTATGGACACACACACACACCCACAACTAAA [CACACA_site8824] | 8.81 ± 0.42
14 | AAAAAGAATGTGAACACACACATTGAATCTAATTTA [CACACA_site6711] | 8.21 ± 0.42
15 | TATTAAACGAAACACACACACACACCCATATATAAA [CACACA_site759] | 8.73 ± 0.54
16 | TATATAAAAAATTCAATACACACCATATATAAATAT [CACACA_site3987] | 8.59 ± 0.35
17 | ACATATAATATATATATATATATATATATATATAAT [GTGCAC_negctrl_site648] | 8.66 ± 0.18
18 | AGATGATATATTATATATCCTTTTAATAAATGTAAT [CACACA_negctrl_site730] | 8.07 ± 0.44
19 | TATTTTTCCATATGCACACACACCGTATATATAATA [CACACA_site1127] | 9.28 ± 0.54
20 | ATAACAAAATAAAACACACACACAAATGTACATATA [CACACA_site2425] | 8.9 ± 0.42
21 | AAATAAATAATTTAATGTACATATATAATATATATA [XGTACX_site1831] | 8.5 ± 0.11
22 | CATATACACCAACACACACACACACCCACAAAAAAA [CACACA_site496] | 8.53 ± 0.4
23 | CTTTTTAATAAATATACACACACAAAAAAAAAAAAA [CACACA_site9316] | 8.36 ± 0.59

Row | Sequence | gcPBM binding intensity (ln)
24 | TAAATAAAGTATAATGCATGCTATTATAATATTAAT [TGCATGCA_site825] | 9.11 ± 0.28
25 | CACTTTATACGTAATTGTACTTTTTCTTTTTTTTAT [XGTACX_site3175] | 8.89 ± 0.4
26 | ACTTACTAATTAATGGGTACATACACACATATATAC [XGTACX_site1362] | 8.79 ± 0.36
27 | TATTCAAAGAAAGACAGTACGTGTAGCAAACAACCT [XGTACX_site4218] | 8.75 ± 0.16
28 | AATAAAAAAATAGAAACACACATTAAAAAAAATAAA [CACACA_site1333] | 8.56 ± 0.5
29 | ATGATATATAGACACACACACATATTTATATACATT [CACACA_site6404] | 8.55 ± 0.35
30 | TGTTAATAAAGGTGTACACAAAATAAAAAAAATTAT [CACACA_site4288] | 9.04 ± 0.28
31 | TTTGTATAGTTGTAGGTGCATATCATTTTTAAATGT [GTGCAC_site9708] | 8.815 ± 0.021
32 | AAAAAAAAAGGTAACGCATGCTTTTAGATTATATTA [TGCATGCA_site398] | 8.8 ± 0.32
33 | TATAATTATATTTGGAGTACAAATTTTTTTTTTTTT [XGTACX_site7494] | 8.3 ± 0.32
34 | AAGTATGCTTGCTACTTATTAAGTGGCAATATAATT [XGTACX_negctrl_site74] | 8.41 ± 0.31
35 | AGAACCATATATAAATGTACATGTTAATATGAATAA [XGTACX_site130] | 8.7 ± 0.33
36 | GGACAAAAAAAAAAAATAAAATAAAAATAAATAAAT [XGTACX_negctrl_site106] | 8.09 ± 0.47
37 | TAACACTTATAAAAAAGTACTGATGAAATAATACTA [XGTACX_site7305] | 8.35 ± 0.38
38 | AAATATATATGAAGATGTACATATATATATGTAAAT [XGTACX_site4039] | 8.61 ± 0.35
39 | AAAAATTCCAGACACACACACACATATAAATAAATA [CACACA_site1232] | 8.53 ± 0.48
40 | AAAAAAAAAAAAAAGAGTACTTTTTTCTCATTACTA [XGTACX_site8353] | 8.35 ± 0.25
41 | TCTTTTAGTTTTATCCACATAATAAAAAGCAAAAAA [GTGCAC_negctrl_site368] | 8.28 ± 0.35
42 | AAAAAAAAAAAAATAGGTACGTAAATATTTCTTTAA [XGTACX_site6423] | 8.18 ± 0.4
43 | TATTCTTCAATTTAAAGTACAAAAATTACTATACTT [XGTACX_site6599] | 8.35 ± 0.22
44 | AATTAAAATATATATATACACACGTAATTATATATA [CACACA_site3819] | 8.18 ± 0.37
45 | ATTGTGGCAATATATTGTACATGTAATATAAATATA [XGTACX_site5415] | 8.71 ± 0.33
46 | ATGTATGTTTATTACTATTTTGAGAATAGACTATAA [CACACA_negctrl_site1366] | 8.18 ± 0.4

Row | Sequence | gcPBM binding intensity (ln)
47 | AGTTATATGATTAATACACACAACAAATGTTTCTTC [CACACA_site1092] | 8.36 ± 0.35
48 | AATTTGGTGTGTGTAAAAGTATGTGTCTATATTTAT [GTGCAC_negctrl_site166] | 8.79 ± 0.66
49 | AAGAATCATATTTAAACACACATACAGATATATATA [CACACA_site5787] | 8.59 ± 0.49
50 | ACGACTAAATATATGAGTACATATATATATAAATAT [XGTACX_site7522] | 8.33 ± 0.3
51 | TCTAAAATAAATAATGCATGTTAAAAAAAAATATAT [TGCATGCA_site562] | 8.8 ± 0.38
52 | TGCAAAAAATTCCACACACACACACCCATATAAATA [CACACA_site1230] | 8.68 ± 0.33
53 | CAAATATGTCTTATTCGTACACATATATATATATAT [XGTACX_site8817] | 10 ± 0.38
54 | AAGAAAATAAAAAATAAGCATAATATGATATGATAT [TGCATGCA_negctrl_site196] | 8.68 ± 0.39
55 | TTTCTTTATAAATTAATATTCACAACACAAAATATA [CACACA_negctrl_site450] | 8.52 ± 0.48
56 | GTGCATATAAGGAAGTGTACGAAAAAAAATATTCCA [XGTACX_site8490] | 8.81 ± 0.5
57 | AAAAATTTGGCATACACACACACACCGACACAGACA [CACACA_site4489] | 8.85 ± 0.4
58 | TTATATATATCTAATTGTACAATATTATGTTCATTA [XGTACX_site7479] | 8.51 ± 0.3
59 | ATATATAATATAATATGTACATAAAATTTTAACATT [XGTACX_site5773] | 8.63 ± 0.29
60 | ATTTATTAAATAAAAAGTACAAAATAAGAAAGAAGA [XGTACX_site6935] | 9.1 ± 0.35
61 | AAAAAAACAGTGAATGCACACATTTAAGATCCATAT [CACACA_site3148] | 8.54 ± 0.39
62 | TATATTCCCTTAATCACACATAAATAAAAAAAAATA [CACACA_site6094] | 8.41 ± 0.45
63 | GAAATTTTTAATGTGGTGCACAGGAAATTTTTTCTT | 8.76 ± 0.057
64 | TATTTCCTTTTTCTTGTTATTCATGAGAAAAAATGA [CACACA_negctrl_site482] | 8.46 ± 0.42
65 | AAAATAATAATAGGCACACATATATATATATATATA [CACACA_site2058] | 10.1 ± 0.33
66 | TACATACATACAGGAGTGCATATATCACAATTATTA | 8.71 ± 0.31
67 | AGTATACTCGGACACACACACACATATATATATATA [CACACA_site5031] | 10.3 ± 0.2
68 | AAAAAAAAAAAAACTACACACATACAAATATTTATA [CACACA_site5430] | 8.45 ± 0.66
69 | AGTGGATGAGGACATACACACACACCGAAGTTGATA [CACACA_site9132] | 8.52 ± 0.43

Row | Sequence | gcPBM binding intensity (ln)
70 | AAGGAATATATATACATACACACATATATATATATA [CACACA_site1665] | 10 ± 0.32
71 | AAAAAAAAAAAAAAAAAAAAAAATATATATATATAT [XGTACX_negctrl_site33] | 9.99 ± 0.25
72 | AATAAAAAGGAAAGGTATATGTGTGCCCTTGTGTTA [TGCATGCA_negctrl_site83] | 8.69 ± 0.49
73 | AAATTTTCATGTGTTGCATGCTGAACTATTTTATCA [TGCATGCA_site856] | 9.36 ± 0.32
74 | AAATAAATAAAAAACACACACAAATAAATAAATATA [CACACA_site2249] | 8.72 ± 0.5
75 | TATTTTTTCCTTTGTTTTTTAAACTATCTTAACTAA [XGTACX_negctrl_site519] | 8.68 ± 0.35
76 | TAAAAAATGATAGAAGTGCATAAAATAATATATATA [GTGCAC_site9904] | 8.9 ± 0.15
77 | ATATAATAAATATATTGTACATATGAATCTACTAAA [XGTACX_site7610] | 8.24 ± 0.31
78 | AAAAAATTCCTATATACACACACGCACATATTTATA [CACACA_site6192] | 8.55 ± 0.38
79 | TTTCTATTTCCTTCACATCTTTTCATCTTTTTTTTT [CACACA_negctrl_site1110] | 9.04 ± 0.47
80 | GACTTGAAGAAATAAGTGCAGAGTTTTATTTTAATT [GTGCAC_site9912] | 8.22 ± 0.3
81 | TTTATTAATAAGAAATGTACACAAAATTATTTCCAA [XGTACX_site5970] | 8.36 ± 0.29
82 | ATAGAGTCATTCCTCACACACACGCTATATGAATAG [CACACA_site2047] | 8.76 ± 0.5
83 | AAAAAATACTTATAAAGTACTAATATATATAAGCAG [XGTACX_site743] | 8.61 ± 0.27
84 | TAATTAAAATTAAGAAGTACATTTTACTTTTAATGC [XGTACX_site5120] | 8.25 ± 0.2
85 | AATACAAACCAAAAAGTAAATACATCAACATGATCA [CACACA_negctrl_site140] | 8.54 ± 0.34
86 | TATCATGTTTTTATGGTGCATGAAATCACACATTGA | 8.62 ± 0.23
87 | GAGAAATTTATACATACACACATATATATATTATAT [CACACA_site4038] | 8.5 ± 0.26
88 | TACACCATGATACATACACACAGACATATACTCATT [CACACA_site4708] | 8.64 ± 0.36
89 | TCCAAATGTTTGCGTTGTACTCTTTTTTTAAAACTA [XGTACX_site5148] | 8.86 ± 0.44
